Source: a collection of fitness landscapes (doi:10.1126/science.1257360)
Some of the results follow.

B1: PhoQ; a variant is named by its letters at X, in order, P23837 (parent)
chain: MKKLLRLFFPLSLRVRFLLATAAVVLVLSLAYGMVALIGYSVSFDKTTFRLLRGESNLFYTLAKWENNKLHVELPENIDKQSPTMTLIYDENGQLLWAQRDVPWLMKMIQPDWLKSNGFHEIEADVNDTSLLLSGDHSIQQQLQEVREDDDDAEMTHSVAVNVYPATSRMPKLTIVVVDTIPVELKSSYMVWSWFIYVLSANLLLVIPLLWVAAWWSLRPIEALAKEVRELEEHNRELLNPATTRELTSLVRNLNRLLKSERERYDKYRTTLTDLTHSLKTPLXXLQXXLRSLRSEKMSVSDAEPVMLEQISRISQQIGYYLHRASMRGGTLLSRELHPVAPLLDNLTSALNKVYQRKGVNISLDISPEISFVGEQNDFVEVMGNVLDNACKYCLEFVEISARQTDEHLYIVVEDDGPGIPLSKREVIFDRGQRVDTLRPGQGVGLAVAREITEQYEGKIVAGESMLGGARMEVIFGRQHSAPKDE

Variants of: B1
Assay: enrichment ratio after two sorts for PhoP signalling (ratio (wild type AVST 3.29)); higher = more functional
Details: with PhoP (E. coli)

Variant | enrichment ratio
VHQF | ≤ 0.25
FVYW | ≤ 0.25
MNMN | ≤ 0.25
RWWF | ≤ 0.25
THPN | ≤ 0.25
QPSM | ≤ 0.25
VYRQ | ≤ 0.25
SQKV | ≤ 0.25
YRQY | 1.38
ACCH | 8.53
FALH | 5.48
VMVF | ≤ 0.25
IPAI | ≤ 0.25
FCPG | ≤ 0.25
TIFM | ≤ 0.25
VFDR | ≤ 0.25
PTGM | ≤ 0.25
KIIP | ≤ 0.25
RLRI | ≤ 0.25
MQVF | 1.6
GLVV | ≤ 0.25
QVKT | ≤ 0.25
QHTM | ≤ 0.25
LRLA | ≤ 0.25

Variant | enrichment ratio
MAIP | ≤ 0.25
DQME | ≤ 0.25
QPMH | ≤ 0.25
ATRS | ≤ 0.25
EKVW | ≤ 0.25
HIVP | ≤ 0.25
VMQL | ≤ 0.25
RKTS | ≤ 0.25
FLVV | ≤ 0.25
AFKM | ≤ 0.25
RFSG | ≤ 0.25
PWYM | ≤ 0.25
HWHP | ≤ 0.25
FHKK | ≤ 0.25
PLLQ | ≤ 0.25
NHLC | ≤ 0.25
SSCP | ≤ 0.25
LYPR | 0.371
RLFE | ≤ 0.25
EESP | ≤ 0.25
IYYM | ≤ 0.25
WKPM | ≤ 0.25
DINF | ≤ 0.25
NPFQ | ≤ 0.25

Variant | enrichment ratio
FHGY | ≤ 0.25
PNWM | ≤ 0.25
YFFL | ≤ 0.25
PTKP | ≤ 0.25
PPVI | ≤ 0.25
AAVS | ≤ 0.25
NNWC | ≤ 0.25
TYSR | ≤ 0.25
DNGW | ≤ 0.25
RFFN | ≤ 0.25
LGPL | ≤ 0.25
MLEV | ≤ 0.25
PMAM | ≤ 0.25
ENHP | ≤ 0.25
VMLF | ≤ 0.25
LHMQ | ≤ 0.25
DTHY | ≤ 0.25
LKPY | ≤ 0.25
MHYE | ≤ 0.25
NYTN | ≤ 0.25
MVSD | ≤ 0.25
NTGA | ≤ 0.25
NCTW | ≤ 0.25
TKLL | 16.2

Variant | enrichment ratio
DYFW | ≤ 0.25
LNFL | ≤ 0.25
LMLQ | ≤ 0.25
FHQC | ≤ 0.25
YLSV | 0.444
TVDY | ≤ 0.25
FNLG | 1.92
ARSR | ≤ 0.25
DSHW | ≤ 0.25
KTVE | ≤ 0.25
SNPT | ≤ 0.25
MMAA | 1.87
PKTQ | ≤ 0.25
GIIV | 3.44
FDVV | ≤ 0.25
ANGA | ≤ 0.25
QAAP | ≤ 0.25
CVFY | ≤ 0.25
GIIN | ≤ 0.25
TFLI | 0.996
FKPP | ≤ 0.25
ETYI | ≤ 0.25
YQLG | 7
HDYS | ≤ 0.25

Variant | enrichment ratio
ERFC | ≤ 0.25
IRCY | ≤ 0.25
QVTF | ≤ 0.25
TQWE | 11.1
DENI | ≤ 0.25
HIPC | ≤ 0.25
AYSL | ≤ 0.25
YAHV | ≤ 0.25
VYDT | ≤ 0.25
AFCY | ≤ 0.25
FFEY | ≤ 0.25
DMTR | ≤ 0.25
GQSL | ≤ 0.25
TTCA | 9.39
HSID | ≤ 0.25
YHPN | ≤ 0.25
QKGN | ≤ 0.25
MNPR | ≤ 0.25
LCVS | ≤ 0.25
PWRH | ≤ 0.25
KSML | ≤ 0.25
IQAP | ≤ 0.25
QDNA | ≤ 0.25
DSSE | ≤ 0.25

Variant | enrichment ratio
GMPK | ≤ 0.25
VSEK | ≤ 0.25
HNLN | ≤ 0.25
LAAH | ≤ 0.25
DHLI | ≤ 0.25
PSIS | ≤ 0.25
TTDK | 1.85
PCLD | ≤ 0.25
NQMG | ≤ 0.25
SVLY | 0.677
GGHV | ≤ 0.25
HQWW | ≤ 0.25
DFCQ | ≤ 0.25
NNVI | ≤ 0.25
VSRK | ≤ 0.25
LHYR | ≤ 0.25
DQLC | ≤ 0.25
EKQI | ≤ 0.25
DQRL | ≤ 0.25
MLLY | ≤ 0.25
GIIY | ≤ 0.25
NGNL | ≤ 0.25
EDNN | ≤ 0.25
QVLK | ≤ 0.25

Variant | enrichment ratio
MVGQ | ≤ 0.25
LNWN | ≤ 0.25
TMVH | ≤ 0.25
LEEN | ≤ 0.25
QLIA | ≤ 0.25
YSQM | 1.08
LCGT | ≤ 0.25
NMWT | ≤ 0.25
DRNK | ≤ 0.25
HRTT | ≤ 0.25
RNYI | ≤ 0.25
YNDT | ≤ 0.25
LAQD | ≤ 0.25
ELGQ | ≤ 0.25
IEIF | ≤ 0.25
FKGQ | ≤ 0.25
SRMQ | ≤ 0.25
MRTK | ≤ 0.25
MFHN | ≤ 0.25
PNIQ | ≤ 0.25
VKVS | ≤ 0.25
NKLQ | ≤ 0.25
WQTP | ≤ 0.25
TWFG | ≤ 0.25

Variant | enrichment ratio
YVKW | ≤ 0.25
APGS | ≤ 0.25
VHCF | ≤ 0.25
QLKY | ≤ 0.25
AIIA | 3.7
IPYQ | ≤ 0.25
EFFH | ≤ 0.25
VFVM | ≤ 0.25
LNCA | ≤ 0.25
WPIT | ≤ 0.25
QCIC | ≤ 0.25
FDVH | ≤ 0.25
PLQH | ≤ 0.25
VNHS | ≤ 0.25
GVFM | ≤ 0.25
WPWW | ≤ 0.25
WLLM | ≤ 0.25
LEYS | 2.14
MQAI | 7.47
GLKL | ≤ 0.25
FGKQ | ≤ 0.25
WHQE | ≤ 0.25
ESEV | ≤ 0.25
VTKQ | ≤ 0.25

Variant | enrichment ratio
HNHA | ≤ 0.25
RLCC | ≤ 0.25
DKLQ | ≤ 0.25
HTRC | ≤ 0.25
KTLL | ≤ 0.25
SSAC | 11.3
DPCP | ≤ 0.25
MRGT | ≤ 0.25
INQV | ≤ 0.25
NQHC | ≤ 0.25
EAQL | ≤ 0.25
MDGY | ≤ 0.25
PIAL | ≤ 0.25
DDYK | ≤ 0.25
SQWD | ≤ 0.25
ESHK | ≤ 0.25
VDYT | ≤ 0.25
ILDL | ≤ 0.25
NYDS | ≤ 0.25
RKLK | ≤ 0.25
HHKG | ≤ 0.25
KGFP | ≤ 0.25
VMLH | ≤ 0.25
DGFP | ≤ 0.25

Variant | enrichment ratio
GMAV | 1.84
FCKP | ≤ 0.25
KDEL | ≤ 0.25
ELDR | ≤ 0.25
RQYP | ≤ 0.25
FVIE | ≤ 0.25
EHVL | ≤ 0.25
QSSL | 9.11
KETI | ≤ 0.25
PMIK | ≤ 0.25
SMNP | ≤ 0.25
SRHR | ≤ 0.25
KREP | ≤ 0.25
TFFA | ≤ 0.25
GCCN | ≤ 0.25
RRSF | ≤ 0.25
QSQV | ≤ 0.25
DCEF | ≤ 0.25
SHAE | ≤ 0.25
GYAW | ≤ 0.25
IYLM | ≤ 0.25
YHMV | ≤ 0.25
GTIS | ≤ 0.25
VQNT | ≤ 0.25

Variant | enrichment ratio
HWHN | ≤ 0.25
VCYC | ≤ 0.25
QNIY | ≤ 0.25
TTDH | 0.73
WEMT | ≤ 0.25
TEMH | 134
YNFQ | ≤ 0.25
VKNF | ≤ 0.25
YEVM | ≤ 0.25
TQDV | ≤ 0.25
ICLY | ≤ 0.25
AWEH | ≤ 0.25
VNVK | ≤ 0.25
SLAL | 10.6
DSYN | ≤ 0.25
QEHG | 11.2
MLHF | ≤ 0.25
RFTN | ≤ 0.25
NACF | ≤ 0.25
NKRI | ≤ 0.25
KAAQ | ≤ 0.25
MVND | ≤ 0.25
VHHI | ≤ 0.25
FAHD | ≤ 0.25

Variant | enrichment ratio
PQRR | ≤ 0.25
MPHF | ≤ 0.25
SVCC | 16.1
GHTV | ≤ 0.25
EFPQ | ≤ 0.25
SCMA | 15.7
STHV | ≤ 0.25
SYIQ | ≤ 0.25
EQSV | ≤ 0.25
PNNM | ≤ 0.25
WMWL | ≤ 0.25
LIKE | ≤ 0.25
MIPS | ≤ 0.25
LHYF | ≤ 0.25
FNGA | ≤ 0.25
DINY | ≤ 0.25
LNWE | ≤ 0.25
RYII | ≤ 0.25
AWGQ | ≤ 0.25
TFWD | ≤ 0.25
DSPF | ≤ 0.25
KLLT | ≤ 0.25
SVDY | ≤ 0.25
PWCP | ≤ 0.25

Variant | enrichment ratio
DYIG | ≤ 0.25
YLLP | ≤ 0.25
EVSQ | ≤ 0.25
FQPV | ≤ 0.25
IDKF | ≤ 0.25
VNVI | 1.09
PFAC | ≤ 0.25
RRVG | ≤ 0.25
DYCM | ≤ 0.25
DQIG | ≤ 0.25
VIGG | ≤ 0.25
REAK | ≤ 0.25
KNPA | ≤ 0.25
MMVL | 0.436
KKVY | ≤ 0.25
YSTH | ≤ 0.25
WYVA | ≤ 0.25
WEGQ | ≤ 0.25
